From publication PMC4336329 (PLoS ONE, 2015)
Hit rate of the full screen: of about 310,000 compounds, about 2,200 (0.71%) showed an effect of 50% or more. Effects have a minus sign here. This is one part of the list.

target: human ether-à-go-go-related gene (hERG) potassium channel (human, UniProt Q12809); test: primary screen, population patch clamp on CHO cells stably expressing hERG
Sequence (Q12809 whole entry, looked up): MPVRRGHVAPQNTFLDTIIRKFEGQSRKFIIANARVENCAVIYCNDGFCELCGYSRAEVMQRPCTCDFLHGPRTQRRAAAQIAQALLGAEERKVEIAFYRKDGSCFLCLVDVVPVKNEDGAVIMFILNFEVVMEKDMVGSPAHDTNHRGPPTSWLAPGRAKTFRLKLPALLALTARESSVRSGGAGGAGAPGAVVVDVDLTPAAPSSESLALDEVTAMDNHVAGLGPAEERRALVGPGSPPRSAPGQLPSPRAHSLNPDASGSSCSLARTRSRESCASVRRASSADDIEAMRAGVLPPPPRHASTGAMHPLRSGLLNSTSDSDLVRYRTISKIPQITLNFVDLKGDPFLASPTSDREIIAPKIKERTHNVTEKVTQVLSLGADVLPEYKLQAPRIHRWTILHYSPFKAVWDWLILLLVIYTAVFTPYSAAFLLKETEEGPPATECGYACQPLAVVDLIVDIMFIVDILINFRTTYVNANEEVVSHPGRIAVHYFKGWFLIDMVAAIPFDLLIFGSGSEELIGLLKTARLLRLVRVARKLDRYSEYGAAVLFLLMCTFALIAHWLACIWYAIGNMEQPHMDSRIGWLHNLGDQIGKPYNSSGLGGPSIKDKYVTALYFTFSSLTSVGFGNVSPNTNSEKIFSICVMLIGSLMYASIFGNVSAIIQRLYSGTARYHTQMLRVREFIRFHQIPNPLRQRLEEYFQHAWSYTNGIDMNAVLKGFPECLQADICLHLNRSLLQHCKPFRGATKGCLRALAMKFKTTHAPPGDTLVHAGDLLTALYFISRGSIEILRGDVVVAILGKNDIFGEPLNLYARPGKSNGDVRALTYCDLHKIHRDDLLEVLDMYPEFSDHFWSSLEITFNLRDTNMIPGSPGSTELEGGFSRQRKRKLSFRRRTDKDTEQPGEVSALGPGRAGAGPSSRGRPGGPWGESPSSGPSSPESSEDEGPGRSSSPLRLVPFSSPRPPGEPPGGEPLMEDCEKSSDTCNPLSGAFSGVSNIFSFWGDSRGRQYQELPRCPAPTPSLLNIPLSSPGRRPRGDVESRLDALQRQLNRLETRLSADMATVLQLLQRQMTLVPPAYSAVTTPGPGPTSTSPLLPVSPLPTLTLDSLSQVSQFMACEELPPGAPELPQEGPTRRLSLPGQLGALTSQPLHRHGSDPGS

| Structure (SMILES) | hERG current change (%, negative = inhibition) at 1uM [%] |
| --- | --- |
| CC1CN(Cc2cc(=O)oc3cc(O)ccc23)CC(C)O1 (centres unmarked) | 7.89 |
| CCNc1nc(NCC)nc(Oc2ccc(C(=O)OC)cc2)n1 | 8.78 |
| CN(C)C=NC(=O)/C(C#N)=C1\CCc2ccccc2N1 | 0.195 |
| Cl.N[C@@H](Cc1ccccc1)c1nnc(SCc2ccccc2Cl)o1 | -9.74 |
| Cc1cc(C)nc(NC(=O)/C=C/c2ccc(Cl)cc2)n1 | 3.87 |
| Cc1ccc(NC(=O)c2ccc(Oc3ncccn3)cc2)cc1 | 9.38 |
| CC(C)(C)NCC(O)COc1ccc(Br)cc1.Cl (centres unmarked) | 3.17 |
| CC1(C)C(C=C(Cl)Cl)C1C(=O)N/N=C/c1ccccc1F (centres unmarked) | 13.6 |
| Cc1cc(=O)oc2c(C)c(OC(C)C(=O)NCC3CCC(C(=O)O)CC3)ccc12 (centres unmarked) | 12.4 |
| Cc1ccc2cccc(OC(=O)/C=C\c3ccccc3)c2n1 | 0.712 |
| CCOc1ccc(N(C)C(=O)CCc2nnc3ccc(N4CCC5(CC4)OCCO5)nn23)cc1 | 13.2 |
| COC(=O)c1ccccc1NC(=O)CSc1ncccn1 | 10.5 |
| O=S(=O)(c1ccc(F)c(F)c1)N1CCCc2ccccc21 | 12.2 |
| COc1ccccc1-n1ccnc(SCC(=O)NCc2ccccc2)c1=O | 19.4 |
| Cc1nn(-c2ccccc2)c(N)c1C(O)(C(F)(F)F)C(F)(F)F | 14.1 |
| O=c1c(C(c2ccc(F)cc2)c2c(O)nc3n(c2=O)CCCS3)c(O)nc2n1CCCS2 | 16.5 |
| O=C(NCCOc1ccc(F)cc1)C1CCC(=O)N(CC2CCCCC2)C1 (centres unmarked) | -5.97 |
| Cc1c(NC(=O)CSc2ccc(Cl)cc2)c(=O)n(-c2ccccc2)n1C | 7.17 |
| COC(=O)c1ccc(/C=N/NC(=O)CCSc2nc3ccccc3s2)cc1 | 4.17 |
| COCc1nnc(NC(=O)c2cc3ccccc3o2)s1 | 26.8 |
| Cc1ccccc1N1C(=O)NC(=O)/C(=C\c2ccc3c(c2)CCCN3Cc2ccccc2)C1=O | 12.9 |
| C=CCN(CC=C)Cc1c(C)[nH]c2c(C)c(C)ccc2c1=O | -2.31 |

| Structure (SMILES) | hERG current change (%, negative = inhibition) at 1uM [%] |
| --- | --- |
| Cc1ccc(C(C)C)c(OCC(=O)NN2C(=O)c3ccccc3C2=O)c1 | 9.73 |
| C#CCOCCOCCOCCNc1nc(OC)nc(N2CCN(C(=O)[C@H](CCC(=O)O)n3cc(C(N)CO)nn3)CC2)n1.Cl (some centres unmarked) | 16.5 |
| CC(C(=O)NCC1CCCO1)n1cc([N+](=O)[O-])cn1 (centres unmarked) | 6.17 |
| CN(C(=O)CSc1nnc(-c2ccc(C(C)(C)C)cc2)n1C)C1CCS(=O)(=O)C1 (centres unmarked) | 11.9 |
| O=C(N/N=C/c1ccc([N+](=O)[O-])s1)C(O)c1ccccc1 (centres unmarked) | 13.8 |
| Cn1c(=O)c([N+](=O)[O-])c(-n2cnc3ccccc32)c2ccccc21 | 7.83 |
| CCOC(=O)c1nc2sc3c(c2c(=O)n1C(C)C(=O)OCC)CCCC3 (centres unmarked) | 16.7 |
| CN(Cc1ccccc1)C(=O)CN1C(=O)c2ccccc2S1(=O)=O | 10.2 |
| COc1ccccc1C(=O)COC(=O)CCNS(=O)(=O)c1ccc(C)c(C)c1 | 8.59 |
| Cc1c(C(=O)Nc2ccccc2F)cnn1-c1ccccc1 | 14.9 |
| CC(C)CC(=O)NC(=S)NNC(=O)c1cccc([N+](=O)[O-])c1 | 9.65 |
| CSc1nsc(SCC(=O)Nc2ccccc2C(N)=O)n1 | 10.5 |
| COc1ccc(NS(=O)(=O)c2cccc(-c3nnc4n3CCCCC4)c2)cc1 | 6.38 |
| O=C(C1=C[C@H](c2ccccc2)C[C@H](OCc2ccc(CO)cc2)O1)N1CCOCC1 | 13.9 |
| O=C(COC(=O)c1ccccc1)Nc1ccccc1Br | -5.29 |
| COC(=O)C1=C(C)N=c2s/c(=C/c3ccoc3)c(=O)n2C1c1ccccc1 (centres unmarked) | 7.23 |
| CCCOc1ccc(N2C(=O)CC(NCc3ccncc3)C2=O)cc1 (centres unmarked) | 1.11 |
| O=c1c2c(-c3cccs3)csc2ncn1/N=C/c1ccccn1 | 10.8 |
| O=C(COC(=O)CCCNC(=O)c1ccc(Cl)cc1)Nc1ccc(Br)cc1 | 2.2 |
| Cc1ccc(NC(=O)CN(C)C(=O)c2cccc(S(=O)(=O)NCc3ccco3)c2)cc1 | 5.16 |
| CCOC(=O)N1CCN(C(=O)CSc2nc(=O)n3cc(C)ccc3n2)CC1 | -4.56 |
| CCn1c(SCC(=O)Nc2ccccc2F)nc2c(c1=O)SC(C)C2 (centres unmarked) | 8.42 |
